The values below come from the supplement of paper PMC9446081.

Among all 39,000 compounds or so, about 220 (0.56%) showed activity. The list shows a part of the results.
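Further: static incubation at 37 °C against the wild-type strain, values averaged over two biological replicates.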

The assay relates to Escherichia coli K-12 BW25113. Briefly: relative growth (OD600 normalised to plate interquartile mean) (fraction); higher = less growth inhibition, active = 0.2 or less. Conditions: 50 µM; LB; incubation time: overnight (16-24 h).
`Cc1ccc(S(=O)(=O)Nc2ccc3c(c2)C(=O)N([C@@H](C)CO)C[C@@H](C)[C@@H](CN(C)CC2CCCCC2)OCCCC[C@H](C)O3)cc1`: the relative growth was inactive: 0.965.

With `C[C@@H]1CCCCO[C@H](CN(C)C(=O)c2ccncc2)[C@@H](C)CN([C@H](C)CO)C(=O)c2cc(NC(=O)C3CCCCC3)ccc2O1`, the relative growth was inactive: 0.998.

Take `Cc1ccc(OC(=O)N(C)C[C@H]2OCc3ccccc3-c3ccccc3C(=O)N([C@H](C)CO)C[C@@H]2C)cc1`: the relative growth was inactive: 0.98.

With `Nc1ncnc2c1ncn2[C@@H]1C=C[C@H](CO)O1`, the relative growth is inactive: 0.995.

For `C[C@@H]1CN([C@H](C)CO)S(=O)(=O)c2ccc(-c3cccnc3)cc2O[C@@H]1CN(C)C(=O)NC1CCCCC1`, the relative growth is inactive: 1.01.

Take `O=C(O)CCCCC(=O)O`: the relative growth was inactive: 0.967.

On to `C[C@@H]1CN([C@H](C)CO)C(=O)c2cccc(NC(=O)c3ccncc3)c2O[C@H]1CN(C)Cc1ccncc1`, for which the relative growth is inactive: 0.98.

Regarding `C[C@@H]1CCCCO[C@H](CN(C)S(=O)(=O)c2ccccc2)[C@@H](C)CN([C@H](C)CO)C(=O)c2cc(NS(C)(=O)=O)ccc2O1`, the relative growth is inactive: 0.984.

For `COc1ccc(NC(=O)Nc2cccc3c2O[C@@H](CN(C)C(=O)Nc2cccc4ccccc24)[C@H](C)CN([C@H](C)CO)C3=O)cc1`, the relative growth is inactive: 1.01.

In the case of `C[C@@H]1CN([C@@H](C)CO)C(=O)c2c(c3ccccc3n2C)-c2ccccc2CO[C@@H]1CN(C)Cc1ccc(F)cc1`, the relative growth was inactive: 1.01.

As to `CC(C)C#Cc1cnc2c(c1)C(=O)N([C@@H](C)CO)C[C@@H](C)[C@H](CN(C)S(=O)(=O)c1cn(C)cn1)O2`, the relative growth is inactive: 0.998.

In the case of `C[C@H](CO)N1C[C@H](C)[C@H](CN(C)CC2CCCCC2)OCCCC[C@H](C)Oc2ccc(NC(=O)NC3CCCCC3)cc2C1=O`, the relative growth was inactive: 0.947.

Consider `CCc1c(O)nc2ccccn2c1=O`, for which the relative growth is inactive: 0.98.

For `C/C=C/c1ccc2c(c1)O[C@H](CN(C)Cc1ccc(C(=O)O)cc1)[C@@H](C)CN([C@@H](C)CO)S2(=O)=O`, the relative growth is inactive: 1.06.

On to `COc1ccc(NC(=O)N(C)C[C@@H]2Oc3c(NC(=O)c4ccc(-c5nccs5)cc4)cccc3C(=O)N([C@H](C)CO)C[C@H]2C)cc1`, for which the relative growth was inactive: 0.927.

Turning to `C[C@@H]1CCCCO[C@H](CN(C)Cc2ccc(Cl)c(Cl)c2)[C@H](C)CN([C@@H](C)CO)C(=O)c2cc(NC(=O)CCC(F)(F)F)ccc2O1`, the relative growth was inactive: 1.01.

Consider `C[C@@H]1CN([C@H](C)CO)C(=O)CCCn2cc(nn2)CO[C@H]1CN(C)C(=O)Nc1ccc(N2CCCCC2)cc1`, for which the relative growth was inactive: 0.978.
